# The other results are listed elsewhere or left out.
# Assays:
# Test in all cases: glycan array binding signal (z-score within array); higher = stronger binding
# Details in all cases: glycan notation: IUPAC condensed, linker removed; mutation: R349A
# [1] = molecular target: Gal(b1-3)[Fuc(a1-4)]GlcNAc(b1-3)Gal(b1-4)[Fuc(a1-3)]GlcNAc
# In short: (§1)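 Negative Z-scores can be read as non-binding. The Z-score is calculated within each array and then averaged across arrays of one protein sequence at different concentrations or buffers and across linkers. Arrays, 3228 in all, were curated from the Consortium for Functional Glycomics database and kept only where the protein sequence was available.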
# [2] = molecular target: Gal(b1-3)[GlcNAc(b1-6)]GalNAc
# In short: as §1
# [3] = molecular target: Gal(b1-3)[Neu5Ac(a2-6)]GalNAc
# In short: as §1
# [4] = molecular target: Gal(b1-3)[Neu5Ac(a2-6)]GlcNAc(b1-6)Gal(b1-4)Glc
# In short: as §1
# [5] = molecular target: Gal(b1-3)[Neu5Ac(b2-6)]GalNAc
# In short: as §1
# [6] = molecular target: Gal(b1-4)GalNAc(a1-3)[Fuc(a1-2)]Gal(b1-4)GlcNAc
# In short: as §1
# [7] = molecular target: Gal(b1-4)GalNAc(b1-3)[Fuc(a1-2)]Gal(b1-4)GlcNAc
# In short: as §1
# Gal(b1-4)Glc = molecular target: Gal(b1-4)Glc
# In short: as §1
# Gal(b1-4)Glc6S = molecular target: Gal(b1-4)Glc6S
# In short: as §1
# Gal(b1-4)GlcNAc = molecular target: Gal(b1-4)GlcNAc
# In short: as §1
# [8] = molecular target: Gal(b1-4)GlcNAc(a1-6)Gal(b1-4)GlcNAc
# In short: as §1
# [9] = molecular target: Gal(b1-4)GlcNAc(b1-2)Man(a1-3)[Gal(b1-4)GlcNAc(b1-2)Man(a1-6)]Man(b1-4)GlcNAc(b1-4)GlcNAc
# In short: as §1
# [10] = molecular target: Gal(b1-4)GlcNAc(b1-3)Gal(b1-3)GlcNAc
# In short: as §1
# [11] = molecular target: Gal(b1-4)GlcNAc(b1-3)Gal(b1-4)Glc
# In short: as §1
# [12] = molecular target: Gal(b1-4)GlcNAc(b1-3)Gal(b1-4)GlcNAc
# In short: as §1
# [13] = molecular target: Gal(b1-4)GlcNAc(b1-3)Gal(b1-4)GlcNAc(b1-3)Gal(b1-4)GlcNAc
# In short: as §1
# [14] = molecular target: Gal(b1-4)GlcNAc(b1-3)Gal(b1-4)[Fuc(a1-3)]GlcNAc(b1-3)Gal(b1-4)[Fuc(a1-3)]GlcNAc
# In short: as §1
# [15] = molecular target: Gal(b1-4)GlcNAc(b1-3)GalNAc
# In short: as §1
# [16] = molecular target: Gal(b1-4)GlcNAc(b1-3)[Gal(b1-4)GlcNAc(b1-6)]Gal(b1-4)GlcNAc
# In short: as §1
# [17] = molecular target: Gal(b1-4)GlcNAc(b1-3)[GlcNAc(b1-6)]Gal(b1-4)GlcNAc
# In short: as §1
# [18] = molecular target: Gal(b1-4)GlcNAc(b1-6)Gal(b1-4)GlcNAc
# In short: as §1
# [19] = molecular target: Gal(b1-4)GlcNAc(b1-6)Gal(b1-4)GlcNAc(b1-6)GalNAc
# In short: as §1
# [20] = molecular target: Gal(b1-4)GlcNAc(b1-6)GalNAc
# In short: as §1
# [21] = molecular target: Gal(b1-4)GlcNAc(b1-6)[Gal(b1-3)]GalNAc
# In short: as §1
# Gal3S(b1-3)GalNAc = molecular target: Gal3S(b1-3)GalNAc
# In short: as §1
# Gal3S(b1-3)GlcNAc = molecular target: Gal3S(b1-3)GlcNAc
# In short: as §1
# [22] = molecular target: Gal3S(b1-3)[Fuc(a1-4)]GlcNAc
# In short: as §1
# Gal3S(b1-4)Glc = molecular target: Gal3S(b1-4)Glc
# In short: as §1
# Gal3S(b1-4)Glc6S = molecular target: Gal3S(b1-4)Glc6S
# In short: as §1
# Gal3S(b1-4)GlcNAc = molecular target: Gal3S(b1-4)GlcNAc
# In short: as §1
# Gal3S(b1-4)GlcNAc6S = molecular target: Gal3S(b1-4)GlcNAc6S
# In short: as §1
# [23] = molecular target: Gal3S(b1-4)[Fuc(a1-3)]Glc
# In short: as §1
# Gal3S4S(b1-4)GlcNAc = molecular target: Gal3S4S(b1-4)GlcNAc
# In short: as §1
# Gal3S6S(b1-4)GlcNAc = molecular target: Gal3S6S(b1-4)GlcNAc
# In short: as §1
# Gal3S6S(b1-4)GlcNAc6S = molecular target: Gal3S6S(b1-4)GlcNAc6S
# In short: as §1
# Gal4S(b1-4)GlcNAc = molecular target: Gal4S(b1-4)GlcNAc
# In short: as §1
# Gal4S6S(b1-4)GlcNAc = molecular target: Gal4S6S(b1-4)GlcNAc
# In short: as §1
# Gal6S(b1-4)Glc = molecular target: Gal6S(b1-4)Glc
# In short: as §1
# Gal6S(b1-4)Glc6S = molecular target: Gal6S(b1-4)Glc6S
# In short: as §1
# Gal6S(b1-4)GlcNAc = molecular target: Gal6S(b1-4)GlcNAc
# In short: as §1
# Gal6S(b1-4)GlcNAc6S = molecular target: Gal6S(b1-4)GlcNAc6S
# In short: as §1
# GalNAc(a1-3)Gal = molecular target: GalNAc(a1-3)Gal
# In short: as §1
# GalNAc(a1-3)GalNAc = molecular target: GalNAc(a1-3)GalNAc
# In short: as §1
# GalNAc(b1-3)Gal = molecular target: GalNAc(b1-3)Gal
# In short: as §1
# [24] = molecular target: GalNAc(b1-3)Gal(a1-4)Gal(b1-4)GlcNAc
# In short: as §1
binder,measurement,setting,value
Surfactant Protein D (Human); Neck + Carbohydrate Recognition Domain (NCRD) (Homo sapiens) (protein) MLLFLLSALVLLTQPLGYLEAEMKTYSHRTMPSACTLVMCSSVESGLPGRDRDGREGPRGEKGDPGLPGAAGQAGMPGQAGPVGPKGDNGSVGEPGPKGDTGPSGPPGPPGVPGPAGREGALGKQGNIGPQGKPGPKGEAGPKGEVGAPGMQGSAGARGLAGPKGERGVPGERGVPGNTGAAGSAGAMGPQGSPGARGPPGLKGDKGIPGDKGAKGESGLPDVASLRQQVEALQGQVQHLQAAFSQYKKVELFPNGQSVGEKIFKTAQFVKPFTEAQLLCTQAGGQLASPRSAAENAALQQLVVAKNEAAFLSMTDSKTEGKFTYPTGESLVYSNWAPGEPNDDGGSEDCVEIFTNGKWNDRACGEKALVVCEF,glycan array binding signal (z-score),[1],-0.491
same,glycan array binding signal (z-score),[2],-0.588
same,glycan array binding signal (z-score),[3],-0.028
same,glycan array binding signal (z-score),[4],-0.379
same,glycan array binding signal (z-score),[5],-0.246
same,glycan array binding signal (z-score),[6],-0.868
same,glycan array binding signal (z-score),[7],-1.03
same,glycan array binding signal (z-score),Gal(b1-4)Glc,-0.817
same,glycan array binding signal (z-score),Gal(b1-4)Glc6S,0.405
same,glycan array binding signal (z-score),Gal(b1-4)GlcNAc,-0.73
same,glycan array binding signal (z-score),[8],-0.277
same,glycan array binding signal (z-score),[9],-0.803
same,glycan array binding signal (z-score),[10],-0.507
same,glycan array binding signal (z-score),[11],0.383
same,glycan array binding signal (z-score),[12],3.1
same,glycan array binding signal (z-score),[13],0.385
same,glycan array binding signal (z-score),[14],-0.676
same,glycan array binding signal (z-score),[15],-0.999
same,glycan array binding signal (z-score),[16],1.12
same,glycan array binding signal (z-score),[17],-0.419
same,glycan array binding signal (z-score),[18],-0.245
same,glycan array binding signal (z-score),[19],1.53
same,glycan array binding signal (z-score),[20],-0.383
same,glycan array binding signal (z-score),[21],-0.813
same,glycan array binding signal (z-score),Gal3S(b1-3)GalNAc,1.84
same,glycan array binding signal (z-score),Gal3S(b1-3)GlcNAc,1
same,glycan array binding signal (z-score),[22],0.815
same,glycan array binding signal (z-score),Gal3S(b1-4)Glc,0.892
same,glycan array binding signal (z-score),Gal3S(b1-4)Glc6S,2.36
same,glycan array binding signal (z-score),Gal3S(b1-4)GlcNAc,0.78
same,glycan array binding signal (z-score),Gal3S(b1-4)GlcNAc6S,1.93
same,glycan array binding signal (z-score),[23],2
same,glycan array binding signal (z-score),Gal3S4S(b1-4)GlcNAc,1.54
same,glycan array binding signal (z-score),Gal3S6S(b1-4)GlcNAc,2.25
same,glycan array binding signal (z-score),Gal3S6S(b1-4)GlcNAc6S,3.32
same,glycan array binding signal (z-score),Gal4S(b1-4)GlcNAc,1.91
same,glycan array binding signal (z-score),Gal4S6S(b1-4)GlcNAc,1.38
same,glycan array binding signal (z-score),Gal6S(b1-4)Glc,1.12
same,glycan array binding signal (z-score),Gal6S(b1-4)Glc6S,3.96
same,glycan array binding signal (z-score),Gal6S(b1-4)GlcNAc,0.94
same,glycan array binding signal (z-score),Gal6S(b1-4)GlcNAc6S,1.67
same,glycan array binding signal (z-score),GalNAc(a1-3)Gal,-0.674
same,glycan array binding signal (z-score),GalNAc(a1-3)GalNAc,-0.685
same,glycan array binding signal (z-score),GalNAc(b1-3)Gal,-0.462
same,glycan array binding signal (z-score),[24],-0.885

# From the supplement of paper PMC8728848
